Here are results for 14 molecules from paper PMC12136788.

The labels stand for the following.
T1: UNK ZnF1-3 (human, UniProt Q9C0B0 31-174)
T1 sequence: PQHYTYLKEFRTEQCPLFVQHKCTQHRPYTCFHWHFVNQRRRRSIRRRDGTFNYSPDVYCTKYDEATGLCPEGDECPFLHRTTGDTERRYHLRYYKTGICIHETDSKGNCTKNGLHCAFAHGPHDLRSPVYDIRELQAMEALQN

B1: chr19:10649910:10649911:-_ENSMUSG00000024666_ENSMUST00000025568|mus_mus|FALSE|FALSE (ssRNA)
RNA: GGGAGUUCUACAGUCCGACGAUCCAUCUUCUGCCUGAUUUGUGGGACUCCCAAGGGUACAUUCCACAGUUCCGAAGAAAAUGACUACUGGUUUUCUCUCUGCCCAGAACUCCAGGAGAGAUGUUUAGUUUUUCCAAAUCGGAGCAACAGAGGAUUGAGCAUCA
B2: chr1:180251914:180251915:+_ENSMUSG00000026500_ENSMUST00000027781|mus_mus|FALSE|FALSE (ssRNA)
RNA: GGGAGUUCUACAGUCCGACGAUCGAUCCUAAUGAGCCAUAGAGUAUAGAUUCUCGAGCACAUGGAGUGUUCUCAACAUCUAAAAUACCUAGGAGCUUGAAGGGCUUUUUCUCCGUCUCGUGGGGCUCCGGGGCGGCCGCCAUGCAACAGAGGAUUGAGCAUCA
B3: chr2:150438701:150438702:-_ENSG00000168288_ENST00000303319|hu_hu|FALSE|FALSE (ssRNA)
RNA: GGGAGUUCUACAGUCCGACGAUCAUCCGAACCUGAUGAUCCUGCAGUCGAAAAGGCUUUGGGAUUGACAACCCUUUUAACUAAAGAGCAAAAUCCUGGGAGAUAGGAAACCAGUCUGGCUCUGUUACAAAGCACAUUGGCCAUCAACAGAGGAUUGAGCAUCA
B4: chr11:107358869:107358870:+_ENSMUSG00000020720_ENSMUST00000021063|mus_mus|FALSE|FALSE (ssRNA)
RNA: GGGAGUUCUACAGUCCGACGAUCUCUCUGGAAGUUGAUGACUCCAGCCAACCUGUCUACUUUAGCAAAGAUGGUCUUGUUAACGACUAGAUUCGAGAGGAAAGCCUCUGACUCAUCCACAGAGAGAUCCAGAAGUUGUGCCAUCAACAGAGGAUUGAGCAUCA
B5: chr2:62103349:62103350:-_ENSG00000115484_ENST00000544079|hu_mus|FALSE|FALSE (ssRNA)
RNA: GGGAGUUCUACAGUCCGACGAUCAAUAUAGGCUCUCUCCUCUCGAAGCACUCGAUCCAUCUGGGCAUAGUCAGAUACUACUAUUUGAUUAUCCAUAUCUGUUUUAGGAGCAGAUAAGCAAAACUGAAUAAGCCCAAUCUUAGCCAACAGAGGAUUGAGCAUCA
B6: chr3:130650941:130650942:+_ENSG00000017260_ENST00000359644|hu_mus|FALSE|FALSE (ssRNA)
RNA: GGGAGUUCUACAGUCCGACGAUCGAUAAGGGGAUUUUUAAACUGAGAAAUAUACUUCUUCCAUAAUGGUUCAUCUUCACUGAUAUCAAAUUCAUUCCAACCAUGGAAGGCUCGCCUAUGACUAACUUCAGAUUUGUUUAAGCCCAACAGAGGAUUGAGCAUCA
B7: chr4:148551591:148551592:-_ENSMUSG00000063077_ENSMUST00000060537|mus_hu|FALSE|FALSE (ssRNA)
RNA: GGGAGUUCUACAGUCCGACGAUCACCUGACAAAAUUAAAUAUCCCUGUAAAUUAGACAAUAAGCAGCAGGCAACAAAGUCUUUGCUUUGGAAUAUGUGCCAGGAAAAGUCAUCUUGUUUUUAGAUCUCAAGAGACAGUUCACACAACAGAGGAUUGAGCAUCA
B8: chr10:93459826:93459827:-_ENSMUSG00000036099_ENSMUST00000119818|mus_hu|motif|central (ssRNA)
RNA: GGGAGUUCUACAGUCCGACGAUCUCCCCAUACCAGCCAGGAAGACACAAUCCACCAAGUGGGAAGCAUAACGAGCAAGCGGAUGAAGGCAAAUAGCAUUGAGAGAUCCCAAAUAUUAGGGGUUGCCAGGGAGCAAAGUGUUGGCAACAGAGGAUUGAGCAUCA
B9: chr4:155193719:155193720:+_ENSMUSG00000029068_ENSMUST00000139066|mus_mus|FALSE|FALSE (ssRNA)
RNA: GGGAGUUCUACAGUCCGACGAUCAGACAAAAGCAACAAAACACUAAAAGUGGCAUCAAACUAAGUACACUUAAAAAUGCUAUAAUACUUUAGAUGAUAUGUAAGUACAAAACUUCACAUUUUUAGAAAAGUUAAAGGUCAUUUCAACAGAGGAUUGAGCAUCA
B10: chr14:102516957:102516958:+_ENSG00000197102_ENST00000360184|hu_mus|motif|central (ssRNA)
RNA: GGGAGUUCUACAGUCCGACGAUCCCAUCAACCCUUCCACACCGUUAAGGAUGAAUGAAGGUUAAAUAUUGGGAGUUUCCGGUUCCAGAAAGAGGACUGGAGAAAAGUCUAGCUUUACUCAGUGCACAGAACGGCAACUCCACGCAACAGAGGAUUGAGCAUCA
B11: chr2:48026839:48026840:+_ENSG00000116062_ENST00000540021|hu_hu|hu_hu_hu_mus_False|8_88 (ssRNA)
RNA: GGGAGUUCUACAGUCCGACGAUCAUAGUGAGCCACUAGCGUCCUAAAUCUCGAACAGUGGCGGUCAUCCGAAAACUGGCCGAUGAAAAACUUGCCCAGUGAAGUGUCCACAAAGCAAACACCAUACGCACGAGUAUGACCAGACAACAGAGGAUUGAGCAUCA
B12: chr8:121455507:121455508:-_ENSG00000172172_ENST00000306185|hu_hu|FALSE|FALSE (ssRNA)
RNA: GGGAGUUCUACAGUCCGACGAUCUGAAGUCUUAUAGAUGCCAUAGCAGCAAGUUUGCCAGGUGGCUGCAUUUUCCCAUCUAAGAGAUACCAUAUUCUAGCAAAAGUGGCCCAUUGCUGGGGCGCCCUAGAGAAACUCGACAUACAACAGAGGAUUGAGCAUCA
B13: chr2:120842415:120842416:+_ENSMUSG00000023572_ENSMUST00000060455|mus_hu|FALSE|FALSE (ssRNA)
RNA: GGGAGUUCUACAGUCCGACGAUCAACCAACAAUCUUUGGUAAUAGUGUCUCUUGCUAAAUAUAGAUAGGCACUCCCUUUCAAUCCAGCAAGCAUUCUAGCUCCAUUUUAAAAGCAGGUAUCAGAGCCUGACCAUGACGAUGAGCAACAGAGGAUUGAGCAUCA
B14: chr8:97196980:97196981:+_ENSMUSG00000031776_ENSMUST00000034228|mus_hu|FALSE|FALSE (ssRNA)
RNA: GGGAGUUCUACAGUCCGACGAUCCCUAUUGGGCUGGUGACAUCCAGAAUGAUCCCAUUCAUUGGCUGGAGGUAGGACCUAGUGCCGCAGAUUGUUCUGGGAAGCUGGCAGAGAAGAUGAUUUGCACAAUGAAGUCACCACUAACAACAGAGGAUUGAGCAUCA

Some of the results follow.

This test addresses T1, UNK ZnF1-3. Kind of test: nsRBNS (natural sequence RNA bind-n-seq); RBNS binding buffer (assumed for nsRBNS): 25 mM Tris pH 7.5, 150 mM KCl, 3 mM MgCl2, 0.01% Triton X-100, 500 ug/ml BSA, 20 U/ml SUPERase-In, 4 C; UNK is unkempt and MSI1 is Musashi-1; names of the RNAs are library labels; protein concentration not given here; high values mean tight binding.
With B1, the binding signal turned out to be 1.39 enrichment R.

Molecule B2 displayed a binding signal of 1.26 enrichment R.

The molecule B3 came in with a binding signal of 0.828 enrichment R.

Take B4: the binding signal is 0.899 enrichment R.

Take B5: the binding signal amounted to 1.07 enrichment R.

Molecule B6 came in with a binding signal of 0.801 enrichment R.

On to B7, for which the binding signal was found to be 1.04 enrichment R.

For the molecule B8, the binding signal turned out to be 1.96 enrichment R.

In turn, B9 registered a binding signal of 1.32 enrichment R.

As for B10, the binding signal was determined as 1.11 enrichment R.

In turn, B11 registered a binding signal of 1.14 enrichment R.

In turn, B12 yielded a binding signal of 0.989 enrichment R.

B13 returned a binding signal of 1.06 enrichment R.

With B14, the binding signal was found to be 1.38 enrichment R.
